Results on 50 compounds are retold here after the supplement of paper PMC10600219.

Structures are written as SMILES. Structures can show the parent of a compound that is named as a salt. Whole data set: some 2,800 compounds, median “cell viability relative to vehicle” near 0.98, cut for the lowest 2% near 0.45. The list shows a part of the results.

The test system of the assay is NCI-H2228 alectinib-DTP. The assay is described as follows: cell viability relative to vehicle (fraction of vehicle); NCI-H2228 is an ALK-positive lung cancer line and DTP means drug-tolerant persister; higher = less growth inhibition. Particulars: 100 nM; treatment time 6 days. In outline:
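Each value is viability relative to vehicle-treated cells, measured as ATP with the CellTiter-Glo 3D Cell Viability Assay. Parental NCI-H2228 cells and drug-tolerant persisters (1000 nM targeted drug, 13 days) in 384-well plates received the 3114-agent TargetMol anti-cancer compound library at 100 nM, or DMSO, and were read 6 days later.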
The compound `COc1nc(N)nc2c1ncn2[C@@H]1O[C@H](CO)[C@@H](O)[C@@H]1O` [Nelarabine] had a cell viability of 0.995. To `O=C(Nc1cccc(Nc2ncc(Br)c(NCCc3cnc[nH]3)n2)c1)N1CCCC1` belongs 1.02; to `COc1ccccc1N1CCN(CCCNc2cc(=O)n(C)c(=O)n2C)CC1` [Urapidil hydrochloride], 1.1; to `COc1ccccc1N1CCN(CCCNc2cc(=O)n(C)c(=O)n2C)CC1` [Urapidil], 1.09.

The compound `C[C@H](CCOc1cccc(CC(=O)O)c1)N(Cc1cccc(C(F)(F)F)c1Cl)CC(c1ccccc1)c1ccccc1` came in with a cell viability of 0.781. For the compound `CCN(CC)Cc1cc(Nc2ccnc3cc(Cl)ccc23)ccc1O` [Amodiaquine hydrochloride], the cell viability came to 1.2. Regarding `CN(C)c1ccccc1CN1CCCN(Cc2ccccc2N(C)C)C1c1ccncc1`, the cell viability came to 1.09. To `OC[C@H]1O[C@@H](n2cnc3c2N=CNC[C@H]3O)C[C@@H]1O` [Pentostatin] belongs 1.04; to `O=c1c2ccccc2nc2n1CCc1c-2[nH]c2ccccc12` [Rutaecarpine], 1.03. As for `O=C(O)C(S)=Cc1c[nH]c2ccc(F)cc12`, the cell viability came to 0.843. The same measure for `COc1ccc2[nH]c(C(=O)c3ccccc3)cc2c1`: 0.576; for `O=C(/C=C/C=C/c1ccc2c(c1)OCO2)N1CCCCC1` [Piperine]: 1.07; for `CC(=O)NCCC(=O)O`: 0.958. `C#CCN(C)CCCOc1ccc(Cl)cc1Cl` [Clorgyline hydrochloride] displayed a cell viability of 0.993. For the compound `O=C(O)CN(CCN(CC(=O)O)CC(=O)O)CCN(CC(=O)O)CC(=O)O` [Pentetic Acid], the cell viability came out at 1.17. `O=C1/C(=C/c2ccc(O)cc2)Oc2cc(O)ccc21` [Hispidol] returned a cell viability of 1.04.

`CC(=O)/C(C)=N/O` [2,3-Butanedione 2-Monoxime] registered a cell viability of 1.09.

On to `CC(C)NCC(O)c1cc(O)cc(O)c1` (stereo not given) [Orciprenaline sulfate], for which the cell viability was 0.913.

In turn, `CC(C)Cc1ccc(-c2nc(-c3ccc(CN4CC(C(=O)O)C4)c(F)c3)no2)cc1` [S1p-receptor-agonist-1] returned a cell viability of 1.03.

The compound `CC(C(=O)Nc1cccc(/N=C/c2c(O)ccc3ccccc23)c1)c1ccccc1` (stereo not given) [Salermide] gave a cell viability of 0.89.

The compound `C[C@@]1(c2cc(-c3cncnc3)c(F)cc2F)CCSC(N)=N1` came in with a cell viability of 1.06.

`C[C@H]1Oc2cc(cnc2N)-c2c(nn(C)c2C#N)CN(C)C(=O)c2ccc(F)cc21` [Lorlatinib] yielded a cell viability of 1.12. To `CCCN1CCN(c2ccc(C(=O)NC3(C(=O)NCC#N)CCCCC3)cc2)CC1` [Balicatib] belongs 0.934; to `CC(=O)Nc1ccc(C(=O)NC(C)(C)C)cc1`, 0.817; to `O=C1NC(=O)[C@@H](c2cn3c4c(cccc24)CCC3)[C@@H]1c1c[nH]c2ccccc12` [Tivantinib], 0.992. Consider `CCc1cnn2c(NCc3ccc[n+]([O-])c3)cc(N3CCCC[C@H]3CCO)nc12` [Dinaciclib], for which the cell viability came to 0.17.

Regarding `CC(C)(C(=O)NCC(F)(F)C(F)(F)F)C(=O)N[C@@H]1C(=O)Nc2ccccc2-c2ccccc21`, the cell viability worked out at 1.09.

In the case of `O=C(O[C@@H]1Cc2c(O)cc(O)cc2O[C@H]1c1cc(O)c(O)c(O)c1)c1cc(O)c(O)c(O)c1` [(-)-Gallocatechin gallate], the cell viability stood at 1.03. `Cc1cc(C)c(CNC(=O)c2cc(-c3ccc(N4CCN(C)CC4)nc3)cc3c2c(C)cn3C(C)C)c(=O)[nH]1` yielded a cell viability of 1.08. The same measure for `CNCCCN1c2ccccc2CCc2ccccc21` [Desipramine hydrochloride]: 0.995; for `O=C1c2c(O)cc(O)cc2O[C@H](c2cc(O)c(O)c(O)c2)[C@H]1O` [Dihydromyricetin]: 1.04.

`Cc1ccsc1C(=CCCN1CCC[C@@H](C(=O)O)C1)c1sccc1C` [Tiagabine] came in with a cell viability of 0.927. The same measure for `O=C(CNc1ccc2ccccc2c1)N/N=C/c1cc(Br)c(O)c(Br)c1O`: 0.858; for `C[C@H]1[C@H](OC(=O)CCC(=O)O)O[C@@H]2O[C@@]3(C)CC[C@H]4[C@H](C)CC[C@@H]1[C@@]24OO3` [Artesunate]: 1.12; for `Cc1c(CN2CCN(c3cccc(C(F)(F)F)c3)CC2)cc(-c2ccccc2)n1NC(=O)c1ccncc1` [Sudoterb free base]: 0.959.

As to `CN(C)CCNC(=O)c1cccn2c(=O)c3cc4ccccc4cc3nc12`, the cell viability stood at 0.825. To `C[n+]1ccccc1/C=N/O` [Pralidoxime Chloride] belongs 1.05; to `CCC(C)n1ncn(-c2ccc(N3CCN(c4ccc(OCC5COC(Cn6cncn6)(c6ccc(Cl)cc6Cl)O5)cc4)CC3)cc2)c1=O` (stereo not given) [Itraconazole], 1.03. In turn, `Cc1cccc(Nc2ccccc2C(=O)O)c1C` [Mefenamic acid] yielded a cell viability of 1.08. The same measure for `COC(=O)[C@H](CCSC)NC(=O)c1ccc(NC[C@@H](N)CS)cc1-c1ccccc1` [FTI 277 hydrochloride]: 1.1. To `CCOc1cc(N)c(Cl)cc1C(=O)NCC1CN(Cc2ccc(F)cc2)CCO1` (stereo not given) [Mosapride Citrate] belongs 0.812; to `O=C(O)CCNC(=O)c1ccc(/N=N/c2ccc(O)c(C(=O)O)c2)cc1` [Balsalazide disodium salt dihydrate], 1.03.

Consider `OC[C@H]1O[C@@H](Oc2ccc3c(c2)OC[C@H]2c4cc5c(cc4O[C@@H]32)OCO5)[C@H](O)[C@@H](O)[C@@H]1O` [Trifolirhizin], for which the cell viability came to 1.05.

Consider `CCCCc1nc(Cl)c(CO)n1Cc1ccc(-c2ccccc2-c2nnn[nH]2)cc1` [Losartan potassium], for which the cell viability is 1.07. To `CCCCc1nc(Cl)c(CO)n1Cc1ccc(-c2ccccc2-c2nnn[nH]2)cc1` [Losartan] belongs 1.06. The same measure for `CC1(C)S[C@@H]2[C@H](NC(=O)Cc3ccccc3)C(=O)N2[C@H]1C(=O)O` [Penicillin G sodium salt]: 0.917; for `COc1c(O)cc2oc3cc(O)c(CC=C(C)C)c(O)c3c(=O)c2c1CC=C(C)C` [Mangostin]: 1.01. To `O=C(Nc1cccc2cccnc12)c1ccc(N2C(=O)[C@@H]3[C@H](C2=O)[C@@H]2C=C[C@H]3C2)cc1` [IWR-1-endo] belongs 0.926.

Regarding `CC(=O)OCC1=C(C(=O)O)N2C(=O)[C@@H](NC(=O)Cc3cccs3)[C@H]2SC1` [Cephalothin sodium], the cell viability stood at 1.03.

`C=CCn1c(=O)c2cnc(Nc3ccc(N4CCN(C)CC4)cc3)nc2n1-c1cccc(C(C)(C)O)n1` [Adavosertib] returned a cell viability of 0.8.
